# From article PMC4336329 (PLoS ONE, 2015)
# Among all 310,000 compounds or so, about 2,200 (0.71%) showed an effect of 50% or more. Effects have a minus sign here. The list shows a part of the results.
# Target: human ether-à-go-go-related gene (hERG) potassium channel (human, UniProt Q12809)
# Experiment: primary screen, population patch clamp on CHO cells stably expressing hERG
# Sequence of human ether-à-go-go-related gene (hERG) potassium channel (Q12809 whole entry, looked up): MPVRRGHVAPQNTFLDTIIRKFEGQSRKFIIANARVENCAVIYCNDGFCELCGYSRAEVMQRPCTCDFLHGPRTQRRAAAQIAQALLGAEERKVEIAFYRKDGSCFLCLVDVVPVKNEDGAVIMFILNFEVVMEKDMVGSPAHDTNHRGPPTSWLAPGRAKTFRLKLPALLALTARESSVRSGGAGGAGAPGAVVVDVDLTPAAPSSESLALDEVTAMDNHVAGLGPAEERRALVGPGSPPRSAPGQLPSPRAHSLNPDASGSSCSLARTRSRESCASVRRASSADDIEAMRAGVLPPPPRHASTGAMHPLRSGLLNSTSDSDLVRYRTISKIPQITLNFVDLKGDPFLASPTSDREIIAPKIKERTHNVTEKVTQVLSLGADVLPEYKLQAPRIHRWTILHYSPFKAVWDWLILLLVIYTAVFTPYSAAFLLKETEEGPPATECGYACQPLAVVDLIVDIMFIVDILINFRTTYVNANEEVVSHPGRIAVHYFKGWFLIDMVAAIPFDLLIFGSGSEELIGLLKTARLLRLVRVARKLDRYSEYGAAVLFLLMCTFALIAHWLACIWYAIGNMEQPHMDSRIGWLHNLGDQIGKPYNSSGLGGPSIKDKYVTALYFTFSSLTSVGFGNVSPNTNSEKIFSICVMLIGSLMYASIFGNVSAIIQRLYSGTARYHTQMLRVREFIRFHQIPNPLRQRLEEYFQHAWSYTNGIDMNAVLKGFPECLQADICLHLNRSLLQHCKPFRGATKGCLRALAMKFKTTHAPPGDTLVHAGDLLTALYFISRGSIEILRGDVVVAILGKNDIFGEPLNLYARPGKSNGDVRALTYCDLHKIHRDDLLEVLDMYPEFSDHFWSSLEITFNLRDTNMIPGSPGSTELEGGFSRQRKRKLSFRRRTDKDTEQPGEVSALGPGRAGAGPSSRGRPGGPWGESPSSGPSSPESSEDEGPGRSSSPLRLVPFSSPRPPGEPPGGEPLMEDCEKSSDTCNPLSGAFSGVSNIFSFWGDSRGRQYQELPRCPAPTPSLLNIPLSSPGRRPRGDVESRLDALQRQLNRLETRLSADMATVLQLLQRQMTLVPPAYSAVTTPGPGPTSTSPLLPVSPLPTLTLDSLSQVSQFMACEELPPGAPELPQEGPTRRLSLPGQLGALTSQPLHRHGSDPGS
row,Compound,"hERG current change (%, negative = inhibition) at 1uM"
1,CC1CCCCN1C(=O)CNCc1ccc(F)cc1.O=C(O)C(=O)O (stereo not shown),8.26%
2,Cc1cccc(NC(=S)NCCC(c2ccccc2)c2ccccc2)c1,7.6%
3,CCOC(=O)c1sc(NC(=O)c2ccc3ncsc3c2)nc1C,14.4%
4,COc1cccc(N2CC(C(=O)N3CCC4(CC3)CC(=O)c3ccccc3O4)CC2=O)c1 (stereo not shown),3.79%
5,CN(CCOc1ccc(Cl)cc1)C(=O)c1cc(-c2ccco2)nc2ccccc12,-0.276%
6,F[B-](F)(F)F.OCC[NH+]=c1cc(-c2ccccc2)oc2ccc(Cl)cc12,-71.1%
7,Cn1c(SCC(=O)N2CCN(c3ccccc3)CC2)nnc1-c1c[nH]c2ccccc12,1.89%
8,CC(C)c1ccc(NC(=S)NCc2cccs2)cc1,-3.09%
9,c1ccc(Oc2nc(NCc3ccco3)nc(NCc3ccco3)n2)cc1,14.6%
10,CC(=O)N1CCc2cc(C(=O)CN3CCC(C)CC3)ccc21,6.75%
11,CCOC(=O)N1CCC(NC(=O)c2cc3c(-c4cccc(OC)c4)nn(C)c3s2)CC1,-3.27%
12,CCCCCC(=O)NNC(=S)NC(=O)c1ccccc1[N+](=O)[O-],13.9%
13,CCCN1CCC(N(C)CCc2ccc(OC)c(OC)c2)CC1,6.4%
14,N#CCC(=O)N/N=C/c1cn(Cc2ccc(Cl)cc2Cl)c2ccccc12,14.9%
15,COc1cccc2cc(C(=O)Nc3ccccc3Cl)/c(=N/NS(=O)(=O)c3ccccc3)oc12,12.2%
16,Cc1ccc2c(C)c(C(=O)N3CCN(c4cnccn4)CC3)oc2c1C,9.49%
17,CC(Sc1nnc2ccccn12)C(=O)Nc1ccc2c(c1)OCCO2 (stereo not shown),6.29%
18,O=C(CN(Cc1ccco1)C(=O)c1ccccc1)Nc1ccc(Cl)c(Cl)c1,-1.04%
19,O=C(CCCN1C(=O)c2cccc3cccc(c23)C1=O)NCc1ccco1,-4.08%
20,N#CC1=C(N)Oc2c(c(=O)sc3ccccc23)C1c1ccncc1 (stereo not shown),14.7%
21,Cc1ccc(NC(=O)c2cc(-c3cccs3)on2)cc1,13.1%
22,Cc1ccc(NC(=S)NCc2ccco2)c(C)c1,6.13%
23,COC(=O)[C@@]12CCCN1[C@H](c1ccc(-c3ccc(C(C)=O)cc3)c(OC)c1)[C@H]1C(=O)N(C)C(=O)[C@H]12.O=C(O)C(F)(F)F,3.42%
24,C=CCC1(CC=C)CCCN1Cc1nc(COc2ccccc2)no1,11.4%
25,O=C(CSc1nnc(Nc2ccccc2F)s1)NC1CCCC1,12.7%
26,Cc1cccc(-n2c(CNC(=O)c3ccc(S(=O)(=O)N4CCCCC4)cc3)n[nH]c2=S)c1,14%
27,S=c1[nH]nc(-c2cccs2)n1/N=C/c1c(Cl)cccc1Cl,15.1%
28,COc1cccc(N2C(=O)c3ccncc3C2=O)c1,15.7%

row,Compound,"hERG current change (%, negative = inhibition) at 1uM"
1,O=C1CC(NCCc2ccccc2)C(=O)N1CCc1ccccc1 (stereo not shown),9.35%
2,CCCCc1nc2sc3c(c2c(=O)[nH]1)CC(C)(C)OC3,9.9%
3,COc1ccc(/C(C)=N/NC(=O)c2ccccc2OCc2ccccc2)c(OC)c1,12.1%
4,CCOC(=O)C1=NNC(C(=O)c2ccccc2)C1c1ccc(C)cc1 (stereo not shown),10.8%
5,Cc1c(N=C/C=C2\N(C)c3ccccc3C2(C)C)c(=O)n(-c2ccccc2)n1C,-15.5%
6,Cc1ccccc1OCC(=O)Nc1sc(C(=O)Nc2cccc(C)c2C)c(C)c1C#N,7.86%
7,COc1ccc(-c2csc(Nc3cccc(C)n3)n2)cc1,13.3%
8,COc1cc(NC(=O)COc2c(C)cc(C)cc2[N+](=O)[O-])c(OC)cc1Cl,4.79%
9,COc1cc(OC)c(S(=O)(=O)Nc2ccccc2C(=O)O)cc1S(=O)(=O)Nc1ccccc1C(=O)O,10.9%
10,O=C(O)Cc1ccc(NC(=O)Nc2ccc(Br)cc2)cc1,14.1%
11,COc1cc2c(cc1OC)C(C)N(C(=O)c1cc3c(C)cc(C)cc3[nH]1)CC2 (stereo not shown),12%
12,CCC(=O)N1CCN(c2ccc(NC(=O)c3ccco3)cc2)CC1,9.45%
13,O=c1c(Cc2ccccc2O)c(O)nc2n1CCCS2,12.2%
14,CN(C)CCCN(C(=O)CCc1ccccc1)c1nc2ccc(F)cc2s1.Cl,-24.8%
15,CCSc1ncc(Cl)c(C(=O)Nc2ccc(S(=O)(=O)Nc3onc(C)c3C)cc2)n1,8.19%
16,COc1ccccc1CN1C(=O)c2ccccc2C1C(=O)NC1CCC(C)CC1 (stereo not shown),9.2%
17,CCOC(=O)C1=C(COC(=O)c2ccco2)NC(=O)NC1CC (stereo not shown),9.44%
18,O=C(Nc1ccn(-c2ccccc2)n1)c1ccc(Cl)cc1,14.3%
19,Cc1cccc(CC(=O)NC2CCCCCC2)c1,12.1%
20,O=C(/C=C/c1cccs1)N1CCN(c2ccccc2F)CC1,3.41%
21,Cc1ccnc(N2C(=O)c3ccccc3C2Nc2cccc(C)c2C)c1 (stereo not shown),12.2%
22,C=CCNC(=O)C12CC3(C)CC(C)(CC(C)(C3)C1)C2,6.41%
23,Cn1c(=O)n(CC(N)=O)c(=O)c2c1nc1n2CCCN1Cc1ccccc1,11.6%
24,C=CCNc1nnnc2c1sc1nc(N3CCOCC3)c3c(c12)CCCC3,6.31%
25,COc1ccc(C2C(C#N)=C(N)OC3=C2C(=O)CCC3)cc1Cn1cc([N+](=O)[O-])cn1 (stereo not shown),7.6%
26,CC(C)(C)c1cc(NC(=O)Nc2ccc(Cl)cc2Cl)no1,15.1%
27,Cc1cc(C)c(C#N)c(SCc2nc3ccccc3c(=O)[nH]2)n1,12.7%
